Test results: PubChem BioAssay AID1996
Values after ≈ are worked out from the molar mass of the structure shown.

Conditions: buffer; pH 7.4; 200.0 µM

| solubility kinetic | Compound |
| --- | --- |
| > 46.9 µg/mL | Cc1cccc(N2CC(C(=O)NCc3ccco3)CC2=O)c1C (stereo not drawn) |
| 14.2 µg/mL (≈ 39.6 µM) | CCc1ccc(OCC(=O)NC(=S)Nc2ccc(C(=O)O)cc2)cc1 |
| 34.6 µg/mL (≈ 132 µM) | O=C(O)c1ccc(Cl)c(NCc2cccnc2)c1 |
| 13.6 µg/mL (≈ 40.5 µM) | O=C(COC(=O)CCc1ccccc1)Nc1ccc(F)cc1Cl |
| < 0.7 µg/mL | O=C1C2C3C=CC(CC3)C2C(=O)N1c1cccc(C(F)(F)F)c1 (stereo not drawn) |
| > 47 µg/mL | CCC(NC(=O)C1C2C=CC(C2)C1C(=O)O)c1ccc(C)cc1 (stereo not drawn) |
| 26 µg/mL (≈ 126 µM) | N#C/C(=C/c1cccnc1)c1ccccc1 |
| > 38 µg/mL | Cc1ccc(-c2onc3ccc(C(=O)O)cc23)cc1 |
| > 42.7 µg/mL | Cc1csc(SCC(=O)NC2CCC(C)CC2)n1 (stereo not drawn) |
| 3.3 µg/mL (≈ 10.8 µM) | Cc1c(-c2ccc(F)cc2)nc(N)c(C#N)c1-c1cccnc1 |
| 4.7 µg/mL (≈ 14.8 µM) | Cc1ccc(C)c(S(=O)(=O)NC(C)CCc2ccccc2)c1 (stereo not drawn) |
| > 72.9 µg/mL | Cn1c(SCC(=O)Nc2ccc(C(=O)O)cc2)nc2scc(-c3ccccc3Cl)c2c1=O |

| Compound | solubility kinetic |
| --- | --- |
| CC(CN(C)C1CCN(C)CC1)c1ccccc1 (stereo not drawn) | 29 µg/mL (≈ 118 µM) |
